From the antibiotic and cytotoxicity screens of Wong et al. (2023)
This is one part of the list.

Each compound was assayed on HepG2 (assay: cytotoxicity call (relative viability < 0.9)). Conditions: 10 µM.
With `COc1ccc(NC(=O)N(C)C[C@@H]2Oc3ccc(NS(=O)(=O)c4cn(C)cn4)cc3CC(=O)N([C@H](C)CO)C[C@@H]2C)cc1` the cytotoxicity call was “inactive”.
For `COc1cccc(-c2ccc3c(c2)O[C@@H](CN(C)C(=O)C2CCC2)[C@H](C)CN([C@@H](C)CO)S3(=O)=O)c1`, the cytotoxicity call was “inactive”.
With `C[C@@H](NC(=O)C[C@H]1CC[C@H](NC(=O)CN2CCOCC2)[C@@H](CO)O1)c1ccccc1` the cytotoxicity call was “inactive”.
`C[C@@](Cc1ccc(O)c(O)c1)(NN)C(=O)O` was tested, and the cytotoxicity call was “active”.
For `Cc1noc(C)c1NC(=O)Nc1ccc2c(c1)C(=O)N([C@H](C)CO)C[C@@H](C)[C@@H](CN(C)S(=O)(=O)c1ccccc1)O2`, the cytotoxicity call was “inactive”.
`CCOC(=O)c1ccc(CNS(=O)(=O)c2ccc(S(=O)(=O)N3CCOCC3)cc2)o1` was tested, and the cytotoxicity call was “inactive”.
For `NC1=N[C@H]2CS(=O)(=O)C[C@@H]2S1`, the cytotoxicity call was “inactive”.
With `C[C@@H]1CN([C@@H](C)CO)C(=O)Cc2cc(NC(=O)Nc3ccc(F)cc3)ccc2O[C@@H]1CN(C)Cc1ccc(C(=O)Nc2ccccc2N)cc1` the cytotoxicity call was “active”.
For `Cc1noc(C)c1NC(=O)Nc1ccc2c(c1)CC(=O)N([C@H](C)CO)C[C@@H](C)[C@@H](CN(C)Cc1ccc(Cl)c(Cl)c1)O2`, the cytotoxicity call was “inactive”.
For `C[C@@H]1CCCCO[C@@H](CN(C)C(=O)Nc2ccc3c(c2)OCO3)[C@H](C)CN([C@H](C)CO)C(=O)c2cc(NC(=O)Nc3ccc(C(F)(F)F)cc3)ccc2O1`, the cytotoxicity call was “inactive”.
For `NCC1OC(OC2C(N)CC(N)C(OC3OC(CO)C(O)C(N)C3O)C2O)C(N)CC1O` (stereo not given), the cytotoxicity call was “inactive”.
In the case of `COCC(=O)N1C[C@@H](C)[C@@H](OC)CN(C)C(=O)c2cc(NC(=O)c3ccc(OC)cc3)ccc2OC[C@H]1C`, the cytotoxicity call is reported as “inactive”.
`C[C@@H]1CCCCO[C@@H](CN(C)C(=O)Nc2ccc(F)cc2)[C@H](C)CN([C@H](C)CO)C(=O)c2cc(NS(=O)(=O)c3ccc(Cl)cc3)ccc2O1` was tested, and the cytotoxicity call was “active”.
`Nc1ccccc1O` was tested, and the cytotoxicity call was “inactive”.
For `Cc1noc(C)c1S(=O)(=O)N(C)C[C@@H]1Oc2ccc(NC(=O)CCN3CCOCC3)cc2CC(=O)N([C@@H](C)CO)C[C@H]1C`, the cytotoxicity call was “inactive”.
In the case of `Cc1noc(C)c1NC(=O)Nc1ccc2c(c1)C(=O)N([C@@H](C)CO)C[C@@H](C)[C@@H](CN(C)S(=O)(=O)c1cn(C)cn1)O2`, the cytotoxicity call is reported as “inactive”.
With `C[C@H]1CN([C@@H](C)CO)C(=O)c2cc(NC(=O)c3ccncc3)ccc2O[C@@H]1CN(C)S(=O)(=O)c1ccccc1` the cytotoxicity call was “inactive”.
For `C[C@H]1CN([C@@H](C)CO)C(=O)c2c(c3ccccc3n2C)-c2ccccc2CO[C@@H]1CN(C)C(=O)Nc1cccc(Cl)c1Cl`, the cytotoxicity call was “inactive”.
In the case of `Cc1cc(C(=O)Nc2cccc3c2O[C@@H](CN(C)C(=O)Nc2c(C)noc2C)[C@@H](C)CN([C@@H](C)CO)C3=O)n(C)n1`, the cytotoxicity call is reported as “inactive”.
In the case of `COc1ccc(S(=O)(=O)N(C)C[C@H]2Oc3ncc(-c4ccncc4)cc3C(=O)N([C@H](C)CO)C[C@H]2C)cc1`, the cytotoxicity call is reported as “inactive”.
`c1cn(CCN2CCNCC2)cn1` was tested, and the cytotoxicity call was “inactive”.
`CC(C)=CCCC(C)C1CCC2(C)C3=C(CCC12C)C1(C)CCC(O)C(C)(C)C1CC3` (stereo not given) was tested, and the cytotoxicity call was “inactive”.
`CCN(CC)c1ccc(N2CC=C[C@@]34O[C@@H]5C=CCCOC(=O)[C@@H]5[C@H]3C(=O)N(CCCO)[C@@H]4C2=O)cc1` was tested, and the cytotoxicity call was “inactive”.
In the case of `C[C@H](CO)N1C[C@H](C)[C@H](CN(C)S(=O)(=O)c2cn(C)cn2)Oc2c(NC(=O)C3CCOCC3)cccc2C1=O`, the cytotoxicity call is reported as “inactive”.
For `Cc1ccc([N+](=O)[O-])cc1S(N)(=O)=O`, the cytotoxicity call was “inactive”.
In the case of `COc1ccc(CN(C)C[C@H]2OCCCC[C@@H](C)Oc3ccc(NC(=O)Nc4c(C)noc4C)cc3C(=O)N([C@@H](C)CO)C[C@H]2C)cc1`, the cytotoxicity call is reported as “inactive”.
For `COc1ccc(NC(=O)Nc2ccc3c(c2)C(=O)N([C@H](C)CO)C[C@H](C)[C@@H](CN(C)C(=O)NC2CCCCC2)OCCCC[C@H](C)O3)cc1`, the cytotoxicity call was “inactive”.
In the case of `COc1ccc(S(=O)(=O)Nc2ccc3c(c2)CC(=O)N([C@@H](C)CO)C[C@@H](C)[C@@H](CN(C)Cc2ccc(-c4ccccc4)cc2)O3)cc1`, the cytotoxicity call is reported as “inactive”.
In the case of `CN(C)CCCNC(=O)C[C@H]1CC[C@@H]2[C@H](COc3ccc(NC(=O)c4cccc(F)c4)cc3C(=O)N2C)O1`, the cytotoxicity call is reported as “inactive”.
`COc1ccc([C@@H]([C@H](Cc2ccccc2)OC(C)=O)N2C[C@@H](CC(=O)N(C)C)[C@@H]3C(=NO[C@H]3c3ccccc3)[C@@H]2Cc2ccccc2)cc1` was tested, and the cytotoxicity call was “inactive”.
`CCCCCCNC(=O)n1cc(F)c(=O)[nH]c1=O` was tested, and the cytotoxicity call was “active”.
In the case of `COc1cccc(S(=O)(=O)N(C)C[C@@H]2Oc3cc(C#CCN(C)C)ccc3S(=O)(=O)N([C@@H](C)CO)C[C@H]2C)c1`, the cytotoxicity call is reported as “inactive”.
In the case of `C[C@@H]1CCCCO[C@@H](CN(C)C(=O)Nc2ccc(C(F)(F)F)cc2)[C@H](C)CN([C@H](C)CO)C(=O)c2cc(NC(=O)Cc3ccccc3)ccc2O1`, the cytotoxicity call is reported as “active”.
`C[C@H](CO)N1C[C@H](C)[C@@H](CN(C)C(=O)Nc2ccc3c(c2)OCO3)Oc2ccc(NC(=O)Nc3cccc4ccccc34)cc2C1=O` was tested, and the cytotoxicity call was “inactive”.
In the case of `CC(C)(C)[S@](=O)N1Cc2cc(C(=O)NC3CCC3)nc(-c3cccc(-c4ccccc4F)c3)c2[C@@H]1CCO`, the cytotoxicity call is reported as “inactive”.
For `COc1ccc(NC(=O)N(C)C[C@@H]2OCCCC[C@@H](C)Oc3ccc(NC(=O)Nc4ccc5c(c4)OCO5)cc3C(=O)N([C@@H](C)CO)C[C@H]2C)cc1`, the cytotoxicity call was “inactive”.
`CC(C)NC(=O)N(C)C[C@@H]1Oc2ccc(NC(=O)Cc3ccccc3)cc2C(=O)N([C@H](C)CO)C[C@@H]1C` was tested, and the cytotoxicity call was “inactive”.
`CC(CCc1ccccc1)NCC(O)c1ccc(O)c(C(N)=O)c1.Cl` (stereo not given) was tested, and the cytotoxicity call was “inactive”.
For `CN1C(=O)c2cc(NC(=O)C3CCCC3)ccc2OC[C@H]2O[C@@H](CC(=O)NCCc3ccncc3)CC[C@H]21`, the cytotoxicity call was “inactive”.
For `CN(C)C(=O)c1cc2c(c(-c3cccc(/C=C/c4ccccc4)c3)n1)[C@H](CCO)N([S@@](=O)C(C)(C)C)C2`, the cytotoxicity call was “inactive”.
